According to PubChem BioAssay AID938 (National Center for Advancing Translational Sciences (NCATS), 2007):
Among all 73,000 compounds or so, about 1,800 (2.5%) were called active. The shares of active, inactive and inconclusive entries below differ from those in the screen. The call rests on the fitted dose curve; in most records, active means well fitted activation curve with a large enough effect; inconclusive means small, poorly fitted or top-dose-only effect; inactive means no such curve, though single readings can be large or run the other way. No potency is given beside an inconclusive call; the fits are too rough.

Assay: qHTS Assay for Agonists of the Thyroid Stimulating Hormone Receptor: Activators of Intracellular cAMP Concentrations in Parental HEK 293; further: nearly all actives have a fitted effect of over 55% in size; on activation: % of control where 0% means no effect
Conditions: parental HEK293 CNG cAMP sensor, membrane potential fluorescence; activation: at 57.1 µM (top of the series) unless noted
Procedure, shortened: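 Parental HEK 293 cells stably expressing a modified CNG channel (no TSHR) report cAMP rise as membrane depolarization. Membrane potential dye with 100 uM RO 20-1724 was loaded for 60 min at room temperature, then compound added for 30 min; fluorescence read at 590 nm.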
Potency means the concentration at half of the fitted maximal effect; tags describe the fitted curve by direction and shape.

Row | SMILES | Potency | activation
1 | CC(C)OCCCN1C(=O)c2[nH]nc(-c3ccccc3O)c2C1c1cccc(Cl)c1 (centres undefined) | inconclusive [activator, partial curve] | 
2 | COc1ccc(-c2cnc(N)nc2-c2ccc(OC)cc2O)cc1 | inconclusive [activator, partial curve] | 
3 | CCOc1ccccc1-c1nc(C(N)=O)c2[nH]c(=O)n(-c3ccccc3)c2n1 | inconclusive [activator, single point] | 
4 | Cc1nnc2ccc(Oc3ccc(-c4ccccc4)cc3)nn12 | inconclusive [activator, partial curve] | 
5 | CC(C)c1nnc(NC(=O)CSc2nc3ccccc3s2)s1 | inconclusive [activator, partial curve] | 
6 | COCCn1c(SCC(=O)N2CCC(C)CC2)nc2ccccc2c1=O | active: 20 µM | 
7 | CCOC(=O)c1ccc(N2C(=O)c3n[nH]c(C)c3C2c2ccc(OC)cc2)cc1 (centres undefined) | inconclusive [activator, partial curve] | 
8 | O=C(O)c1nn(-c2ccccc2)nc1-c1nn(-c2ccccc2)nc1C(=O)O | inconclusive [activator, partial curve] | 
9 | CC(C)c1cccc2nc3c(c([Si](C)(C)C)c12)Cn1c-3cccc1=O | active: 12.6 µM | 
10 | O=C(CCCSc1nc(-c2ccco2)cc(C(F)(F)F)n1)Nc1ccc2c(c1)OCO2 | inactive | 
11 | Cc1ccccc1-c1nccc(NCc2cccs2)n1 | inconclusive [activator, partial curve] | 
12 | O=C(CSc1ncnc2sc3c(c12)CCCC3)c1ccco1 | inconclusive [activator, single point] | 
13 | COC(=O)[C@@]1(Cc2ccccc2)[C@H]2c3cc(C(=O)N(C)C)n(Cc4ccccc4)c3C[C@H]2CN1C(=O)c1ccccc1 | active: 2.51 µM | 
14 | Cn1c(C(=O)NCc2ccc3c(c2)OCO3)cc2sccc21 | inconclusive [activator, single point] | 
15 | c1ccc2c(c1)CCN(Cc1nnnn1Cc1ccc3c(c1)OCO3)C2 | inconclusive [activator, single point] | 
16 | CC1(C)OC(=O)C(=CNc2ccc(F)cc2)C(=O)O1 | inconclusive [activator, single point] | 
17 | O=C(CSc1nnc(Cc2cccs2)n1C1CCCCC1)N1CCCc2ccccc21 | active: 12.6 µM | 
18 | CN(C(=O)CSc1nc(N)nn1-c1ccccc1)c1ccccc1 | inconclusive [activator, single point] | 
19 | COC(=O)C1=CN(C(C)C)C=C(C(=O)OC)C1c1cccc(OC)c1 | inconclusive [activator, partial curve] | 
20 | COc1ccc(-n2c(Cc3cccn3C)nnc2SCC(=O)Nc2cccc(F)c2)cc1 | inactive | 
21 | CCCOC(=O)c1ccc(-n2nnnc2SCC(=O)N2CCCCC2)cc1 | inconclusive [activator, single point] | 
22 | CCCCn1c(-c2ccsc2)nc2c1c(=O)[nH]c(=O)n2CCC | inconclusive [activator, single point] | 

Row | SMILES | Potency | activation
23 | Cc1cc(C)n(-c2nc(NCCO)c3c4c(sc3n2)CCCC4)n1 | inactive | 
24 | COC(=O)[C@@]1(Cc2ccccc2)[C@H]2c3cc(C(=O)N(C)C)n(Cc4ccsc4Br)c3C[C@H]2CN1C(=O)c1ccccc1 | active: 3.16 µM | 
25 | CSc1ccc(S(=O)(=O)NCCOc2ccccc2C)cc1 | inconclusive [activator, full curve, poor fit] | 
26 | c1ccc(OCCSc2nnnn2-c2ccccc2)cc1 | active: 25.1 µM | 
27 | CCOC(=O)C1CCCN(Cc2cc(Br)c(OC)cc2OC)C1 (centres undefined) | inconclusive [activator, single point] | 
28 | O=C(CSc1nnc(CNc2ccccc2)o1)N1CCc2ccccc21 | inconclusive [activator, full curve] | 
29 | N#Cc1nc(COc2ccc(Cl)cc2)oc1N1CCCCCC1 | inconclusive [activator, partial curve] | 
30 | Cc1cc(C(=O)OCCO)c(C#N)c(N)n1 | inactive | 
31 | CCOc1ccccc1Nc1ncccc1C(=O)N1CCCC1 | inconclusive [activator, single point] | 
32 | O=C1c2ccccc2C(=O)N1CCc1nn[nH]n1 | inconclusive [activator, single point] | 
33 | O=C(CN1C(=O)CSC1=O)Nc1ccc(F)c(F)c1F | inconclusive [activator, single point] | 
34 | COc1cc2c(cc1OC)[C@H](c1ccccc1)CN(C)CC2 | inactive | 
35 | CCOC(=O)Cc1nnc(NC(=O)CSc2nnc3c4ccccc4n(C)c3n2)s1 | inconclusive [activator, single point] | 
36 | Cc1nn(-c2ccccc2)c2sc(C(=O)NC3CCCCC3)cc12 | inconclusive [activator, partial curve] | 
37 | Cc1ccc(N=C2SCCCN2C(=O)c2ccco2)cc1Cl | inconclusive [activator, single point] | 
38 | Cc1cn2c(-c3ccc(Cl)cc3)nnc2s1 | inconclusive [activator, single point] | 
39 | COc1ccc(S(=O)(=O)NCCSc2ccc(C)cc2)cc1OC | inconclusive [activator, partial curve] | 
40 | COc1cccc(-n2c(C)nc3c(cnn3-c3ccc(Cl)cc3)c2=O)c1 | inconclusive [activator, single point] | 
41 | COCCNc1nc(C(C)(C)C)nc2c1nnn2Cc1ccccc1Cl | active: 2.51 µM | 
42 | CC(C)CO/N=C1/[C@H]2O[C@@H]2[C@@H](O)[C@H]2[C@H]1CCn1c(=O)n(-c3ccccc3)c(=O)n12 |  | inactive: -5.41% [at 11.4 µM]
43 | COc1ccc(OC)c(S(=O)(=O)N(C)CC(=O)N2CCc3ccccc3C2)c1 | inconclusive [activator, single point] | 
44 | Cc1c(C(=O)OCCOc2ccccc2)[nH]c2c1C(=O)CCC2 | inconclusive [activator, full curve] | 
